Laboratory results: patent US20040142317A1, “Use of amino acid transporter atbo,+ as a delivery system for drugs and prodrugs” (priority 2003, published 2004)

Molecular target: T1, mouse ATB^0,+ (Mus musculus, UniProt Q9JMA9)
T1 sequence (Q9JMA9 1-638): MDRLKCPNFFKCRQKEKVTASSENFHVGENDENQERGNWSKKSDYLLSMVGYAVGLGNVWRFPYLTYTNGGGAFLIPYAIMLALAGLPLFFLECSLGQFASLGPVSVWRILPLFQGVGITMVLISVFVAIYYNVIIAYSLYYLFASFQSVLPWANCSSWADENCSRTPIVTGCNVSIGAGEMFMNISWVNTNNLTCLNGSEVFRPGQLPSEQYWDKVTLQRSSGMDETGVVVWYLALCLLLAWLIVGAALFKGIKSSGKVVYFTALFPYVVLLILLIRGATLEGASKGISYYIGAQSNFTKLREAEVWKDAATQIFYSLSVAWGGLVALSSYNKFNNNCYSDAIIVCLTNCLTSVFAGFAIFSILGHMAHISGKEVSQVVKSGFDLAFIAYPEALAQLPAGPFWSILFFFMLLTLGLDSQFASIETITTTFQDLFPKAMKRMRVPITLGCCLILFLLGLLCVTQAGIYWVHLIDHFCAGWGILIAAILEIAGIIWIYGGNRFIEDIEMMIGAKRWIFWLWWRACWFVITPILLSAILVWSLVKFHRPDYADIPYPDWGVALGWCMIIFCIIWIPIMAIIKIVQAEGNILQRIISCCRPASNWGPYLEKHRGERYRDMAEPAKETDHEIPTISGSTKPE
Conditions: not given

First: NC(CCC(=O)Nc1ccccc1)C(=O)O (racemic) [DL-Glutamate γ-anilide]
Second: N[C@@H](CCC(=O)Nc1cccc2ccccc12)C(=O)O [L-Glutamate γ-(α-napthylamide)]
The “ATB^0,+-specific glycine transport (% control)” value of the first is lower: 49 ± 1 % control for the first, 97 ± 2 % control for the second.

`N[C@@H](CCC(=O)O)C(=O)O` [Glutamate, L-Glutamate] was tested, and the “ATB^0,+-specific glycine transport (% control)” value was 82 ± 2 % control.

With `N[C@@H](CCC(=O)Nc1ccc2ccccc2c1)C(=O)O` [L-Glutamate γ-(β-napthylamide)] the “ATB^0,+-specific glycine transport (% control)” value was “*79 ± 4 % control”.

Same assay, conditions: HRPE, 0.25 h, read-out: mATB^0,+-Specific [^3H]-Glycine Transport, % (of control)

`N[C@@H](CCC(=O)O)C(=O)O` [Glutamate, L-Glutamate] was tested, and the remaining activity at 2500 µM was 90%.

Same assay, conditions: compound 1 mM; [3H]glycine 10 μM; HRPE cells

Going from `N[C@@H](CC(=O)O)C(=O)O` [Aspartate, L-Aspartate] to `NC(=O)C[C@H](N)C(=O)O` [Asparagine, L-Asparagine], the “ATB^0,+-specific glycine transport (% control)” value falls from 86 ± 3 % control to 22 ± 0 % control.

Compared with `N[C@@H](CCC(=O)OCc1ccccc1)C(=O)O` [L-Glutamate γ-benzyl ester], `N[C@@H](CC(=O)OCc1ccccc1)C(=O)O` [L-Aspartate β-benzyl ester] is lower in “ATB^0,+-specific glycine transport (% control)” value: 13 ± 1 % control for the first, 2 ± 1 % control for the second.

Compared with `N[C@@H](CC(=O)NO)C(=O)O` [L-Aspartate β-hydroxamate], `COC(=O)C[C@H](N)C(=O)O` [L-Aspartate β-methyl ester] is lower in “ATB^0,+-specific glycine transport (% control)” value: 39 ± 1 % control for the first, 8 ± 1 % control for the second.

For `NC(=O)CC[C@H](N)C(=O)O` [Glutamine, L-Glutamine], the “ATB^0,+-specific glycine transport (% control)” value was 21 ± 1 % control.

Same assay, conditions: read-out: IC50 for inhibition of ATB^0,+-mediated glycine transport; glycine 10 μM; HRPE cells

First: CSC(N)=NCCC[C@H](N)C(=O)O [L-MTC]
Second: NC(=S)NCCC[C@H](N)C(=O)O [L-TC]
The IC50 of the first is 3.5-fold higher: 730 ± 90 µM for the first, 210 ± 30 µM for the second. The second is the more potent here.

`CC(=N)NCCC[C@H](N)C(=O)O` [L-NIO] and `CC(=N)NCCCC[C@H](N)C(=O)O` [L-NIL] are within error of each other in IC50: 2650 ± 250 µM for the first, 2600 ± 290 µM for the second.

With `CNC(=N)NCCC[C@H](N)C(=O)O` [L-NMMA] the IC50 was 770 ± 120 µM.
